Measurements from the supplement of paper PMC8728848.
This is one part of the list.

Tests used:
Test in all cases: glycan array binding signal (z-score within array); higher = stronger binding
Settings in all cases: glycan notation: IUPAC condensed, linker removed
[1] = target: GalNAc(b1-4)GlcNAc(b1-2)Man
Outline: (§1)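 The Consortium for Functional Glycomics database supplied 3228 glycan arrays, of which those lacking an available protein sequence were dropped. The binding signal, a within-array Z-score, was averaged across arrays of the same protein sequence and across linkers. Negative scores can be read as non-binding.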

[2] = target: GalNAc(b1-4)GlcNAc(b1-2)Man(a1-3)[GalNAc(b1-4)GlcNAc(b1-2)Man(a1-6)]Man(b1-4)GlcNAc(b1-4)GlcNAc
Outline: as §1

[3] = target: GalNAc(b1-4)GlcNAc(b1-3)GalNAc(b1-4)GlcNAc
Outline: as §1

GalNAc(b1-4)GlcNAc6S = target: GalNAc(b1-4)GlcNAc6S
Outline: as §1

GalNAc(b1-6)GalNAc = target: GalNAc(b1-6)GalNAc
Outline: as §1

GalNAc3S(b1-4)GlcNAc = target: GalNAc3S(b1-4)GlcNAc
Outline: as §1

GalNAc3S(b1-4)GlcNAc3S = target: GalNAc3S(b1-4)GlcNAc3S
Outline: as §1

[4] = target: GalNAc3S(b1-4)[Fuc(a1-3)]GlcNAc
Outline: as §1

GalNAc4S6S(b1-4)GlcNAc = target: GalNAc4S6S(b1-4)GlcNAc
Outline: as §1

GalNAc6S(b1-4)GlcNAc = target: GalNAc6S(b1-4)GlcNAc
Outline: as §1

Glc(a1-4)Glc = target: Glc(a1-4)Glc
Outline: as §1

[5] = target: Glc(a1-4)Glc(a1-4)Glc(a1-4)Glc
Outline: as §1

Glc(a1-6)Glc(a1-6)Glc = target: Glc(a1-6)Glc(a1-6)Glc
Outline: as §1

[6] = target: Glc(a1-6)Glc(a1-6)Glc(a1-6)Glc
Outline: as §1

Glc(b1-4)Glc = target: Glc(b1-4)Glc
Outline: as §1

Glc(b1-6)Glc = target: Glc(b1-6)Glc
Outline: as §1

GlcA(b1-3)Gal = target: GlcA(b1-3)Gal
Outline: as §1

GlcA(b1-3)GlcNAc = target: GlcA(b1-3)GlcNAc
Outline: as §1

GlcA(b1-6)Gal = target: GlcA(b1-6)Gal
Outline: as §1

[7] = target: GlcA3S(b1-3)Gal(b1-4)GlcNAc(b1-2)Man
Outline: as §1

[8] = target: GlcA3S(b1-3)Gal(b1-4)GlcNAc(b1-3)Gal(b1-4)Glc
Outline: as §1

[9] = target: GlcNAc(a1-3)Gal(b1-4)GlcNAc
Outline: as §1

[10] = target: GlcNAc(a1-4)Gal(b1-3)GlcNAc
Outline: as §1

[11] = target: GlcNAc(a1-4)Gal(b1-4)GalNAc
Outline: as §1

[12] = target: GlcNAc(a1-4)Gal(b1-4)GlcNAc
Outline: as §1

[13] = target: GlcNAc(a1-4)Gal(b1-4)GlcNAc(b1-3)Gal(b1-4)Glc
Outline: as §1

[14] = target: GlcNAc(a1-4)Gal(b1-4)GlcNAc(b1-3)Gal(b1-4)GlcNAc
Outline: as §1

[15] = target: GlcNAc(a1-4)Gal(b1-4)GlcNAc(b1-3)Gal(b1-4)GlcNAc(b1-3)Gal(b1-4)GlcNAc
Outline: as §1

[16] = target: GlcNAc(a1-4)Gal(b1-4)GlcNAc(b1-3)Gal(b1-4)[Fuc(a1-3)]GlcNAc(b1-3)Gal(b1-4)[Fuc(a1-3)]GlcNAc
Outline: as §1

[17] = target: GlcNAc(a1-6)Gal(b1-4)GlcNAc
Outline: as §1

[18] = target: GlcNAc(b1-2)Gal(b1-3)GalNAc
Outline: as §1

[19] = target: GlcNAc(b1-2)Man(a1-3)[GlcNAc(b1-2)Man(a1-6)]Man(b1-4)GlcNAc(b1-4)GlcNAc
Outline: as §1

[20] = target: GlcNAc(b1-2)Man(a1-3)[GlcNAc(b1-2)Man(a1-6)]Man(b1-4)GlcNAc(b1-4)[Fuc(a1-6)]GlcNAc
Outline: as §1

[21] = target: GlcNAc(b1-2)Man(a1-3)[GlcNAc(b1-4)][GlcNAc(b1-2)Man(a1-6)]Man(b1-4)GlcNAc(b1-4)GlcNAc
Outline: as §1

[22] = target: GlcNAc(b1-2)Man(a1-3)[GlcNAc(b1-4)][GlcNAc(b1-2)Man(a1-6)]Man(b1-4)GlcNAc(b1-4)[Fuc(a1-6)]GlcNAc
Outline: as §1

[23] = target: GlcNAc(b1-2)[GlcNAc(b1-4)]Man(a1-3)[GlcNAc(b1-2)Man(a1-6)]Man(b1-4)GlcNAc(b1-4)GlcNAc
Outline: as §1

[24] = target: GlcNAc(b1-2)[GlcNAc(b1-4)]Man(a1-3)[GlcNAc(b1-4)][GlcNAc(b1-2)Man(a1-6)]Man(b1-4)GlcNAc(b1-4)GlcNAc
Outline: as §1

B1: B160 (Bifidobacterium sp) (protein)
chain: MVSHNKRIVAALAAVAAMGIGLAGCGGSDTAGDTKSGSDGGVVNITYMHRLPDSEGMTLVNDIVAKWNKEHPNIQVKATKFDGNAADMIKKLETDVKAGNAPDLAQVGYAEVPEVFTKGLLQDVTDEAAKYKDDFASGPFALMQVDGKTYGLPQDTGPLTYFYNAAEFEKLGITVPKTADELIETAKKTAAQGKYIMTFTPDEAMMMMSGQAGASGPWYKVDGNSWVVNTQTKGSKAVADVYQQLIDNKAALTNPRWDASFDNSIQSGQLIGTVAAAWEAPLFIDSAGGTGAGEWKVTQLGDWFGNGTKTGANGGSGVAVLKGSKHPAEAMEFLDWFNTQVDDLVSQGLVVAATTADAKTPQKWSDYFSGQDVMAEFKTANDNMGDFTYMPGFSAVGAAMKQTAAKAADGSAKVSDVFDTAQKTSVDTLKNLGLSVKE
Q: Which “glycan array binding signal (z-score)” value [1] does the source give for B1 here?
A: Its value is -0.154.

Q: What about the “glycan array binding signal (z-score)” value [2] of the same binder?
A: Its value is 0.202.

Q: And the “glycan array binding signal (z-score)” value [3]?
A: The value was -0.191.

Q: What about the “glycan array binding signal (z-score)” value (GalNAc(b1-4)GlcNAc6S) of the same binder?
A: The value was -0.196.

Q: And the “glycan array binding signal (z-score)” value (GalNAc(b1-6)GalNAc)?
A: The value was -0.189.

Q: And the “glycan array binding signal (z-score)” value (GalNAc3S(b1-4)GlcNAc)?
A: Its value is -0.163.

Q: And the “glycan array binding signal (z-score)” value (GalNAc3S(b1-4)GlcNAc3S)?
A: Its value is -0.179.

Q: What about the “glycan array binding signal (z-score)” value [4] of the same binder?
A: Its value is -0.117.

Q: And the “glycan array binding signal (z-score)” value (GalNAc4S6S(b1-4)GlcNAc)?
A: The value was -0.189.

Q: And the “glycan array binding signal (z-score)” value (GalNAc6S(b1-4)GlcNAc)?
A: Its value is -0.177.

Q: What about the “glycan array binding signal (z-score)” value (Glc(a1-4)Glc) of the same binder?
A: The value was -0.177.

Q: What about the “glycan array binding signal (z-score)” value [5] of the same binder?
A: Its value is -0.149.

Q: And the “glycan array binding signal (z-score)” value (Glc(a1-6)Glc(a1-6)Glc)?
A: The value was -0.177.

Q: What about the “glycan array binding signal (z-score)” value [6] of the same binder?
A: Its value is -0.158.

Q: And the “glycan array binding signal (z-score)” value (Glc(b1-4)Glc)?
A: The value was -0.126.

Q: What about the “glycan array binding signal (z-score)” value (Glc(b1-6)Glc) of the same binder?
A: Its value is -0.171.

Q: What about the “glycan array binding signal (z-score)” value (GlcA(b1-3)Gal) of the same binder?
A: The value was -0.123.

Q: What about the “glycan array binding signal (z-score)” value (GlcA(b1-3)GlcNAc) of the same binder?
A: Its value is -0.178.

Q: What about the “glycan array binding signal (z-score)” value (GlcA(b1-6)Gal) of the same binder?
A: The value was -0.167.

Q: And the “glycan array binding signal (z-score)” value [7]?
A: The value was -0.16.

Q: What about the “glycan array binding signal (z-score)” value [8] of the same binder?
A: The value was -0.173.

Q: And the “glycan array binding signal (z-score)” value [9]?
A: The value was -0.176.

Q: And the “glycan array binding signal (z-score)” value [10]?
A: The value was -0.197.

Q: And the “glycan array binding signal (z-score)” value [11]?
A: The value was -0.125.

Q: What about the “glycan array binding signal (z-score)” value [12] of the same binder?
A: Its value is -0.181.

Q: What about the “glycan array binding signal (z-score)” value [13] of the same binder?
A: The value was -0.18.

Q: What about the “glycan array binding signal (z-score)” value [14] of the same binder?
A: Its value is -0.177.

Q: What about the “glycan array binding signal (z-score)” value [15] of the same binder?
A: The value was -0.145.

Q: And the “glycan array binding signal (z-score)” value [16]?
A: Its value is -0.068.

Q: What about the “glycan array binding signal (z-score)” value [17] of the same binder?
A: The value was -0.172.

Q: What about the “glycan array binding signal (z-score)” value [18] of the same binder?
A: Its value is -0.155.

Q: What about the “glycan array binding signal (z-score)” value [19] of the same binder?
A: The value was -0.174.

Q: And the “glycan array binding signal (z-score)” value [20]?
A: Its value is -0.113.

Q: What about the “glycan array binding signal (z-score)” value [21] of the same binder?
A: The value was -0.197.

Q: And the “glycan array binding signal (z-score)” value [22]?
A: The value was -0.19.

Q: And the “glycan array binding signal (z-score)” value [23]?
A: The value was -0.178.

Q: What about the “glycan array binding signal (z-score)” value [24] of the same binder?
A: Its value is -0.16.
